In ChEMBL document CHEMBL4888484, “Replenishing the malaria drug discovery pipeline: Screening and hit evaluation of the MMV Hit Generation Library 1 (HGL1) against asexual blood stage Plasmodium falciparum ,using a nano luciferase reporter read-out” (2022):
Screen size: about 150,000 compounds; about 540 (0.36%) showed an effect of 50% or more. Some of the results follow.

tested on: Plasmodium falciparum; experiment: Primary screen in NF54 nanoGlo assay, in single point, at 2uM, 72h; a lower Z score goes with more inhibition; assay type: functional, Erythrocyte; conditions: timepoint 72 hour

SMILES	% Inhibition	Z score
CN(CCc1ccccn1)C(=O)[C@H]1CCN(c2ccccc2Cl)C1	-12%	2.41
Cc1ccc(-n2nc(C(=O)O)c(/C=C/c3ccc(Cl)cc3Cl)c(C#N)c2=O)cc1C	7%	-1.29
Cc1cc(Cl)cc2c1NC(=O)C21NC(C(C)O)[C@H]2C(=O)N(CCc3ccccc3)C(=O)[C@H]21 (stereo partly specified)	-11%	1.42
Cc1cc(C)cc(CN2CCN(C(=O)[C@H](C)n3cccn3)CC2=O)c1	1%	-0.14
C[C@H](Oc1ccccc1)c1n[nH]c2c1CN(Cc1cccc3nonc13)CC2	-12%	1.78
CC(C)c1cc(N2CCC3(CC2)CN[C@H](C(=O)O)C3)nc(C(F)(F)F)n1	-7%	0.78
CC(C)c1noc(CN(C)CC(=O)N2CCCC2)n1	-15%	1.83
Cc1ccc(C(=O)N2CCn3cccc3[C@H]2c2ccc(N(C)C)cc2)cc1C(F)(F)F	9%	-1.69
Cc1cc(NC(=O)c2ccc(-c3ccccc3C(F)(F)F)o2)no1	-12%	1.4
CC(C)(C)[C@H](CO)NC(=O)Nc1ccccc1C(F)(F)F	-8%	1.54
CCC(=O)Nc1cc(-c2ccccc2)ns1	-12%	1.83
Cc1cn(C[C@H](O)CN2CCOCC2)c(=O)n1-c1ccccc1	-3%	0.31
Cc1noc([C@@H]2CCCN2C(=O)c2nc3c(s2)CCCC3)n1	-9%	1.06
CCCOCc1nc([C@H]2CCO[C@@H]2C(C)(C)C)no1	-1%	0.15
O=C(O)CN1C(=O)COc2ccc(S(=O)(=O)Nc3cccc(-c4nc5ccccc5s4)c3)cc21	-12%	2.22
O=C(O)C[C@H](NC(=O)C1CCc2ncncc2C1)c1ccc2ccccc2c1 (stereo partly specified)	27%	-3
O=C(c1ccc(N2CCCC2)nc1)N1CC(S(=O)(=O)N2CCOCC2)C1	-21%	1.9
CCN(CC(=O)NCc1cccs1)C(=O)C[C@H](NC(C)=O)c1ccccc1	-12%	1.69
OC1CCCN(Cc2ccc3cn[nH]c3c2)C1CCc1ccccc1 (stereo unspecified)	-12%	1.96
CN1CCN(C2(CNc3ccnc4ccccc34)CCCC2)CC1	99%	-9.07
CCc1ccc([C@@H]2C[C@H](c3cccc(Cl)c3)n3nc(N)nc3N2)cc1	-17%	2.14
OCC1(Nc2nc(C3CC3)ns2)CCCC1	-9%	1.37
Cc1ccnc(NCCNC(=O)CCn2c(C)cc(C)nc2=O)c1	-13%	1.97
COc1ccc2c(c1)C[C@H](C(C)C)CN2C(=O)c1cnc(C(=O)O)cn1	-6%	0.75
Cc1nc(-c2ccc(NCc3cc4ccccc4o3)nc2)[nH]c(=O)c1C	30%	-4.36
Cc1nnc(NC(=O)CCCCc2nc3ccccc3s2)s1	-6%	0.72
COc1ccccc1-c1n[nH]c(C2CC2)c1NC(=O)CC(C)C	-14%	1.4

SMILES	% Inhibition	Z score
COCC1(C(=O)N(C)Cc2nncn2C)CCC1	-19%	2.41
CC(C)c1nn(C)cc1NS(=O)(=O)CCCC(F)(F)F	33%	-4.51
COc1cc2c(cc1OC)C(=O)N1C[C@H](N(C)C)C[C@H]1C(=O)N2	-9%	1.07
CCNC(=O)Nc1cc(S(=O)(=O)N(CC)CC)ccc1Cl	5%	-0.97
O=C1C(N2CC(O)C(O)C2)CCCN1CC(F)(F)F (stereo unspecified)	-10%	1.45
COc1ccccc1NC(=O)c1ccc2c(N(C)C)ncnc2c1	3%	-0.38
CCc1cc(N2CC[C@](COC)(C(=O)O)C2)nc(C)n1	-8%	0.98
O=C(NCc1ccc(F)cc1)c1nc(O)c2nnn(C[C@H]3CCCO3)c2n1	-4%	0.48
O=C(CC1CCCC1)NCc1ccccc1Cl	-11%	1.84
Cn1c(-c2ccc(-n3ccnc3)nn2)cc2ccccc21	3%	-0.27
C[C@H]1CS(=O)(=O)CCN1Cc1cnc(C(F)(F)F)s1	-5%	0.8
CC(C)(C)c1oc(C(N)=O)cc1CN1C(=O)CC2(CCCC2)CC1=O	-5%	0.94
CC(C)(C)c1ccc(C(=O)c2c[nH]c(C(=O)NCc3ccco3)c2)cc1	29%	-3.69
CC(C)CC[C@](C)(O)CNC(=O)C1CC=CC1	-6%	1.16
Cn1ccc(=O)n(CC(=O)c2ccc(N3CCCC3=O)cc2)c1=O	1%	-0.09
CC1(C)[C@H]2CC=C(CCNC(=O)CCO)[C@@H]1C2	-11%	1.69
Nc1nonc1C(=O)N1CCN(C(=O)c2ccccc2Cl)CC1	-16%	3.17
CCC=C(C)C(=O)NCc1ccc(OC)c(OC)c1	11%	-1.46
Cc1ccc(CCNC(=O)c2sc3ncnc(N4CCCC4)c3c2C)cc1	-13%	1.18
Cc1ccc(NC(=O)CNC(=O)c2ccc(-c3noc(C4CCCC4)n3)cc2)c(Cl)c1	-6%	1.11
CC(C)[C@@]1(CO)CCCN(Cc2cnn(C)c2C(F)(F)F)C1	-11%	1.5
CCC[C@H]1CCc2c(sc(NC(=O)c3c(C)noc3C)c2C#N)C1	9%	-1.03
CCOC(=O)c1cc(OCc2nnc(-c3ccccc3)o2)cc(C(=O)OCC)c1	-17%	2.37
CN1CCN(C[C@@H](O)CN(C)C(=O)CC2CCCCCC2)CC1	1%	-0.15
CC[C@H]1CCCCN1C(=O)Cn1c(=O)c2c(C(=O)OC)cc(C)nc2n(-c2cccc(OC)c2)c1=O	-10%	1.23
COc1cccc(Cn2c(=O)c3sccc3n(CC(=O)NC(C)(C)C)c2=O)c1	34%	-3.83
